Consider three molecules from article PMC4771807.

By UniProt entry, the sequences of proteins in these tests, tags left out. Where a name states a change or a piece, a line headed by the entry shows the natural chain unless it says otherwise. Chains listed by the source or under a name are the forms on record and can include a tag or linker. Residues count along the entry.
long signaling form of the leptin receptor (LRb) (mouse (endogenous in brain)) (P48356, residues 22-1162): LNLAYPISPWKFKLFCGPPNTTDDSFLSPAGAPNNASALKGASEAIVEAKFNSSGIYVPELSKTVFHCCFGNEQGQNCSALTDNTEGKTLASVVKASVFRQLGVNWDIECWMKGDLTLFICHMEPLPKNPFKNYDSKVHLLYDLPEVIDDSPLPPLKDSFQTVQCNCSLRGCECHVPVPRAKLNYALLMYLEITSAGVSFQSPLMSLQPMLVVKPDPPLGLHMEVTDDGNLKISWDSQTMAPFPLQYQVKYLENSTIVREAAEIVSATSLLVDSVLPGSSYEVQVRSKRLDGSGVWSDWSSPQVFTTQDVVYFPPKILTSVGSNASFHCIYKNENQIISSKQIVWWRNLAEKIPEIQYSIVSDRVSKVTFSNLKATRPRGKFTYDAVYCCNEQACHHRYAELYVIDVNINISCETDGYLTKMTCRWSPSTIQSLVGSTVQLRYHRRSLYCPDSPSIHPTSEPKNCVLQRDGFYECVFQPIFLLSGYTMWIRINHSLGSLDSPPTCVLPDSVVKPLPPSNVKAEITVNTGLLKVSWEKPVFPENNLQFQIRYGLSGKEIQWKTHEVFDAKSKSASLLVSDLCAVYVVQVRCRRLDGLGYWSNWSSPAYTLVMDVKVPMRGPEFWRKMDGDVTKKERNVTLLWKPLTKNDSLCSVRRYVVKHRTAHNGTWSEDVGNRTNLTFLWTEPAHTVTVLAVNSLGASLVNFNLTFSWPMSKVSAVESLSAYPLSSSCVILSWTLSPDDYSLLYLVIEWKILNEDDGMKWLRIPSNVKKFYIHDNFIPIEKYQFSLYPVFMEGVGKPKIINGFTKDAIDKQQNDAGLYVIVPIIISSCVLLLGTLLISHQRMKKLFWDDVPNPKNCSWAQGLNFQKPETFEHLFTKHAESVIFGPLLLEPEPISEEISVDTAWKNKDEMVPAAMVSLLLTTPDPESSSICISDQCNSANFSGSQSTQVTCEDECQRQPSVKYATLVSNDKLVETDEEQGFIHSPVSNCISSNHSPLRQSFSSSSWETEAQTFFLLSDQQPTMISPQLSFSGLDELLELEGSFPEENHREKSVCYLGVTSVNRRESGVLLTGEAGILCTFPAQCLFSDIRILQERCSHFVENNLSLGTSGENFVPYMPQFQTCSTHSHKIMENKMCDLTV
LRa (P48356-2, form named): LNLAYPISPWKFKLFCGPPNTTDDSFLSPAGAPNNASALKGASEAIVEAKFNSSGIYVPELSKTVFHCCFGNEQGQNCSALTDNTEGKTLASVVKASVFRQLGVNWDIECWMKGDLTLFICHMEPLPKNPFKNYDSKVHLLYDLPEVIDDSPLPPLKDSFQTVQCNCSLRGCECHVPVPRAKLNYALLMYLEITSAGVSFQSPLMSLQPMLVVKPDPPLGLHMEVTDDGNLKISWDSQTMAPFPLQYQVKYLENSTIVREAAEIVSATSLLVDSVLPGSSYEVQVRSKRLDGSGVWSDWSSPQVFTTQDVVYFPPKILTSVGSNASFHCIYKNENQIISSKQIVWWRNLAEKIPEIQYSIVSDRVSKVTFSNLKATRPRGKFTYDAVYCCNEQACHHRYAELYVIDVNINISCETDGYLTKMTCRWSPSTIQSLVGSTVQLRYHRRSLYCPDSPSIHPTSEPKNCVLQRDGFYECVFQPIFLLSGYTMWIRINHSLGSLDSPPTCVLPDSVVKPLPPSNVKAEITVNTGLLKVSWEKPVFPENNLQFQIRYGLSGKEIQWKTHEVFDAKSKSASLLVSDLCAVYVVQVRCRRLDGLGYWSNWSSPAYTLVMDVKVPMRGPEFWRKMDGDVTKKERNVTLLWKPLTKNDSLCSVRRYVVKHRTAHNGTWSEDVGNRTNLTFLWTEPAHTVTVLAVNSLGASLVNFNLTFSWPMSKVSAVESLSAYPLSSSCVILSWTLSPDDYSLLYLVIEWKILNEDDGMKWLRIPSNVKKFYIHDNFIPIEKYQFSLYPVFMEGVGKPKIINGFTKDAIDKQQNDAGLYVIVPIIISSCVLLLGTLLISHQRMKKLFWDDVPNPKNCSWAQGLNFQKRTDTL

Results are given in words; binding and its absence hold for the method and conditions named. Binding seen in cells or lysates may run through a third protein. Some binding calls cover weakened binding; strength is not graded here. Tags and fused reporters may be left off the sequences shown.

Assay [1] addresses T1, Flag- and S-tagged human BBS1 (human) (UniProt Q8NFJ9).
T1 sequence: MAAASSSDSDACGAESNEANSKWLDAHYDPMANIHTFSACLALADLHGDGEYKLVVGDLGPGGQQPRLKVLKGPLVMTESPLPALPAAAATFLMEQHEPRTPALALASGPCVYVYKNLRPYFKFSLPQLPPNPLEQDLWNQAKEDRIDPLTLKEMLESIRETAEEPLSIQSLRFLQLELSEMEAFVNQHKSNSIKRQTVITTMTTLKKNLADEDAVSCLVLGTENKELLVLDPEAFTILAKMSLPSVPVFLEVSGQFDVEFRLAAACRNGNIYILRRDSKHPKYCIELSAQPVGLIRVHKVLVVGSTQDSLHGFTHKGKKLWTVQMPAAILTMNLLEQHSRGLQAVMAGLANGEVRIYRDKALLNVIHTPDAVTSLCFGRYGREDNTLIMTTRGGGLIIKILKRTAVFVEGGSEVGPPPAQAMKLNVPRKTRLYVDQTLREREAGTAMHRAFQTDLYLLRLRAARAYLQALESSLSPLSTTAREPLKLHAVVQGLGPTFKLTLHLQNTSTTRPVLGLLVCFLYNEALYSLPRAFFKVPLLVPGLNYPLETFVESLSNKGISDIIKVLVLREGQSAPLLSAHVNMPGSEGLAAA
As to the kind of experiment: co-IP; whole brain lysate (800 μg protein) of transgenic mice expressing Flag-BBS1; immunoprecipitation with an anti-LR antibody (recognizes LRb and LRa), blots with M2 anti-Flag and anti-LR; reciprocal by the legend.

Assay [2] deals with T1, Flag- and S-tagged human BBS1 (human). As to the kind of experiment: co-IP; pooled cortex lysates from 3 transgenic mice expressing Flag-BBS1; reciprocal immunoprecipitation.
Assay [3] has the same target. As to the kind of experiment: co-IP; pooled hypothalamic lysates from 3 transgenic mice expressing Flag-BBS1; reciprocal immunoprecipitation.
The target of assay [4] is long signaling form of the leptin receptor (LRb) (mouse (endogenous in brain)) (UniProt P48356). As to the kind of experiment: co-IP; pooled cortex lysates from 3 transgenic mice expressing Flag-BBS1; reciprocal immunoprecipitation.
Assay [5] has the same target. As to the kind of experiment: co-IP; pooled hypothalamic lysates from 3 transgenic mice expressing Flag-BBS1; reciprocal immunoprecipitation.
The target is the same in assay [6]. As to the kind of experiment: co-IP; whole brain lysate (800 μg protein) of transgenic mice expressing Flag-BBS1; immunoprecipitation with an anti-LR antibody (recognizes LRb and LRa), blots with M2 anti-Flag and anti-LR; reciprocal by the legend.

Take “LRa (from UniProt P48356-2 22-894) (receptor)”: the binding result in assay [1] is listed as “no binding”.
“long signaling form of the leptin receptor (LRb) (from UniProt P48356 22-1162)”: the binding result in assay [2] is reported as “no binding (condition: in cortex lysates)”; in assay [3], “binds”; in assay [1] it was “binds”.

B1: Flag- and S-tagged human BBS1 (protein, UniProt Q8NFJ9 1-593)
chain: T1 sequence
As for B1, the binding result in assay [4] is reported as “no binding (condition: in cortex lysates)”; in assay [5] it was “binds”; in assay [6], “binds”.
